Drawing on the supplement of paper PMC4604168 (melanoma cell lines), this text covers cell count for 5 compounds.

SMILES strings stand for the structures. The list shows a part of the results. Many values rest on one well or one pass, so single values are uncertain.

Test systems include WM115; WM1716; WM1745; WM3526; WM3619; WM451Lu.
Common to all, as to test: cell count relative to DMSO control; melanoma cells; higher = more viable cells
Details in all cases: library dose: low library concentration; 72 h
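Note: cell number obtained by counting DAPI-stained nuclei in high-throughput microscope images with image analysis software, screen run in 1,536-well plates.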

In the case of `NC(=O)Nc1cc(-c2cccc(F)c2)sc1C(=O)N[C@H]1CCCNC1` + COc1ccc2c(c1)CCC1C2CCC2(C)C(NCCCCCCN3C(=O)C=CC3=O)CCC12 [U73122] (first compound 0.02 µM, partner dose 0.4 µM), the cell count with WM115 was 97.2%; in the test on WM1716 it was 77.6%; in the test with WM1745 it was 100%; with WM3526 it was 105%; with WM3619, 80.6%; in the test with WM451Lu, 100%.

Take `OCCn1cc(-c2cnc3nnn(Cc4ccc5ncccc5c4)c3n2)cn1` + CN(NC(=O)CC(=O)NN(C)C(=S)c1ccccc1)C(=S)c1ccccc1 [STA4783] (first compound 1 µM, partner dose 0.006 µM): the cell count was found to be 99.2% in the test on WM115; 76.8% in the test on WM1716; 93.7% in the test on WM1745; 91.1% with WM3526; 118% in the test on WM3619; 86.6% in the test on WM451Lu.

With `C[C@]1(c2nc3c(C(N)=O)cccc3[nH]2)CCCN1` [Veliparib] + Cc1cc([N+](=O)[O-])ccc1NS(=O)(=O)c1cc(Cl)ccc1Cl [FH535] (first compound 1.4 µM, partner dose 1 µM), the cell count in the test on WM115 was 86.2%; with WM1716, 82.7%; with WM1745 it was 85.2%; in the test on WM3526, 96.2%; in the test on WM3619, 95.2%; in the test on WM451Lu, 88.7%.

Turning to `NCC(=O)Nc1ccc(-n2nc(C(F)(F)F)cc2-c2ccc3c(ccc4ccccc43)c2)cc1` + Oc1cc(-c2nc(-c3ccccc3)[nH]c2-c2ccncc2)ccc1Cl [L779450] (first compound 1 µM, partner dose 0.2 µM), the cell count with WM115 was found to be 78.6%; with WM1716, 108%; in the test on WM1745 it was 92.9%; in the test on WM3526, 66.4%; in the test with WM3619 it was 114%; in the test on WM451Lu, 62.4%.

On to `Cc1nc(Nc2ncc(C(=O)Nc3c(C)cccc3Cl)s2)cc(N2CCN(CCO)CC2)n1` [dasatanib] + CCCCCCCCCCCC1=C(O)C(=O)C=C(O)C1=O [Embelin] (first compound 0.004 µM, partner dose 1.2 µM), for which the cell count with WM115 was 84.3%; in the test on WM1716, 89.1%; in the test on WM1745, 62.5%; with WM3526 it was 92.3%; in the test on WM3619, 104%; in the test on WM451Lu it was 83.2%.
